# The inconclusive results got no clear call from the source; some entries with a clear call stand among them for comparison. No potency is given beside an inconclusive call; the fits are too rough. Active and inactive are the calls of the source. Calls follow the shape of the dose curve; as a rule, active = well fitted curve in the direction sought with a large enough effect; inconclusive = small, poorly fitted or top-dose-only effect, or another doubt; inactive = no such curve, though single readings can be large; an effect the other way counts as inactive or inconclusive.
# Legend:
# [1] = BET inhibitor-based combinations targeting novel dependencies in MECOM-rearranged (r) AML: OCI-AML3 cell line (AID 2202232); conditions: CellTiter-Glo luminescence, 48 h; Potency: OCI-AML3 viability; viability (% of control): at 46 µM (top of the series); also: nearly all actives have a fitted effect of over 35% in size;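 as to viability (% of control): plate controls were DMSO vehicle wells for no effect and wells without cells for full effect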
# Summary of the method: (§1)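 Each compound was tested at eleven concentrations on cells seeded at 500/well. After two days' incubation, ATP-based luminescence reported viability; responses relative to DMSO and blank wells yielded AUC and cell-line-centred Z-AUC.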
# [2] = BET inhibitor-based combinations targeting novel dependencies in MECOM-rearranged (r) AML: AML-194 cell line (AID 2202237; also: nearly all actives have a fitted effect of over 40% in size;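 as to viability (% of control): plate controls were vehicle wells for no effect and wells without cells for full effect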)
# Summary of the method: as §1
# [3] = BET inhibitor-based combinations targeting novel dependencies in MECOM-rearranged (r) AML: MV-4-11 cell line (AID 2202233); conditions: MV-4-11 AML viability, CellTiter-Glo luminescence, 48 h; viability, % of control: at 46 µM (top of the series) unless noted; also: nearly all actives have a fitted effect of over 45% in size;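 as to viability, % of control: plate controls were DMSO for no effect and blank wells for full effect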
# Summary of the method: (§2)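 First, 500 cells per well were seeded; next, drugs were pinned as 11-point doses; then plates sat 48 hr in the incubator; finally CellTiter-Glo was added and luminescence read, with AUC and Z-AUC computed.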
# [4] = BET inhibitor-based combinations targeting novel dependencies in MECOM-rearranged (r) AML: AML-191 cell line (AID 2202236; also: nearly all actives have a fitted effect of over 35% in size;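 as to viability (% of control): plate controls were vehicle wells for no effect and wells without cells for full effect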)
# Summary of the method: as §1
# [5] = BET inhibitor-based combinations targeting novel dependencies in MECOM-rearranged (r) AML: HNT-34 cell line (AID 2202234); also: nearly all actives have a fitted effect of over 35% in size;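 as to viability (% of control): plate controls were vehicle wells for no effect and cell-free wells for full effect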
# Summary of the method: as §2
# [6] = BET inhibitor-based combinations targeting novel dependencies in MECOM-rearranged (r) AML: UCSD-AML1 cell line (AID 2202235); conditions: UCSD-AML1 AML cells viability, CellTiter-Glo, 48 h; viability (% of control): at 46 µM (top of the series); also: nearly all actives have a fitted effect of over 40% in size;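 as to viability (% of control): plate controls were DMSO vehicle wells for no effect and blank wells for full effect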
# Summary of the method: as §2
# Potency is read from the fitted curve at half-maximal effect; tags tell the direction and shape of the fitted curve.
compound,measurement,setting,value
CC#CCn1c(N2CCC[C@@H](N)C2)nc2c1c(=O)n(Cc1nc(C)c3ccccc3n1)c(=O)n2C,Potency,[1],inactive
same,Potency,[2],inactive
O=c1ccn([C@@H]2O[C@H](CO)[C@@H](O)[C@H]2O)c(=O)[nH]1,Potency,[3],"inconclusive [inhibitor, partial curve, poor fit]"
CN(CC(=O)N(Cc1ccc(C2CCCCC2)cc1)c1ccc(C(=O)O)c(O)c1)S(=O)(=O)c1c(F)c(F)c(F)c(F)c1F,Potency,[1],active: 9.34 µM
same,Potency,[2],inactive
CC(=O)[C@H]1CC[C@H]2[C@@H]3CC=C4C[C@@H](O)CC[C@]4(C)[C@H]3CC[C@]12C,Potency,[1],inactive
same,Potency,[2],inactive
COc1ccc2cc([C@H](C)C(=O)O)ccc2c1,Potency,[1],inactive
same,Potency,[2],inactive
CCCc1nc(C)c2c(=O)[nH]c(-c3cc(S(=O)(=O)N4CCN(CC)CC4)ccc3OCC)nn12,Potency,[3],inactive
CCCCCCCN(CC)CCCC(O)c1ccc(NS(C)(=O)=O)cc1 (configuration not stated),Potency,[1],"inconclusive [inhibitor, partial curve, poor fit]"
same,Potency,[2],"inconclusive [inhibitor, partial curve, poor fit]"
CO[C@H]1/C=C/O[C@@]2(C)Oc3c(C)c(O)c4c(O)c(c5c(nc6cc(C)ccn65)c4c3C2=O)NC(=O)/C(C)=C\C=C\[C@H](C)[C@H](O)[C@@H](C)[C@@H](O)[C@@H](C)[C@H](OC(C)=O)[C@@H]1C,Potency,[1],inactive
same,Potency,[2],inactive
Cc1ccc(NC(=O)C2(c3ccc4c(c3)OC(F)(F)O4)CC2)nc1-c1cccc(C(=O)O)c1,Potency,[3],"inconclusive [inhibitor, full curve, poor fit]"
CC(=O)NC[C@H]1CN(c2ccc(N3CCOCC3)c(F)c2)C(=O)O1,Potency,[1],inactive
same,Potency,[4],inactive
same,Potency,[2],inactive
Fc1ccc(-c2csc3ncnc(NCc4ccc5c(c4)OCO5)c23)cc1,Potency,[1],"inconclusive [inhibitor, partial curve]"
same,Potency,[2],"inconclusive [inhibitor, partial curve]"
O=C(/C=C/c1ccc(/C=C/C(=O)Nc2ccc(C3=NCCN3)cc2)cc1)Nc1ccc(C2=NCCN2)cc1,viability (% of control),[1],inactive: 117% [at 5.12 µM]
same,viability (% of control),[2],inactive: 108% [at 5.12 µM]
COc1cc(C[C@@H](CO)[C@H](CO)Cc2ccc(O)c(OC)c2)ccc1O,Potency,[1],inactive
same,Potency,[2],inactive
CCN(CC)C(=O)Cc1csc(NS(=O)(=O)c2cccc(Cl)c2C)n1,Potency,[3],"inconclusive [inhibitor, single point]"
CN1C(=O)N(c2cc(Cl)cc(Cl)c2)C(=O)[C@]12CN(Cc1cc(C(=O)O)cs1)C[C@H]2c1ccc(C#N)cc1,Potency,[3],"inconclusive [inhibitor, partial curve, poor fit]"
CC(C)n1nc(-c2ccc3oc(N)nc3c2)c2c(N)ncnc21,Potency,[1],active: 0.417 µM
same,Potency,[4],"inconclusive [inhibitor, full curve]"
same,Potency,[2],"inconclusive [inhibitor, full curve, poor fit]"
CC(=O)OC1C(C)OC(Oc2c(-c3ccc(O)cc3)oc3cc(O)cc(O)c3c2=O)C(O)C1OC(C)=O (configuration not stated),Potency,[3],"inconclusive [inhibitor, partial curve]"
CCn1cc(C(=O)O)c(=O)c2cc(F)c(N3CCN(C)CC3)cc21,Potency,[3],"inconclusive [inhibitor, full curve, poor fit]"
COc1ccc(-c2cnc3c(-c4cccc5ncccc45)cnn3c2)cc1,Potency,[1],"inconclusive [inhibitor, full curve, poor fit]"
same,Potency,[2],inactive
CCOC(=O)[C@H](CCc1ccccc1)N[C@@H](C)C(=O)N1[C@H](C(=O)O)C[C@@H]2CCC[C@@H]21,Potency,[1],inactive
same,Potency,[4],inactive
same,Potency,[2],inactive
O=C(C1CCCCC1)N1CC(=O)N2CCc3ccccc3C2C1 (configuration not stated),Potency,[3],inactive
CC1COC2(CCN(c3nc(=O)c4cc(C(F)(F)F)cc([N+](=O)[O-])c4s3)CC2)O1 (configuration not stated),Potency,[1],inactive
same,Potency,[4],inactive
same,Potency,[2],inactive
Fc1cccc(-n2cnc3c(NCc4nc5c(F)c(F)ccc5[nH]4)nc(N4CCOCC4)nc32)c1,Potency,[1],active: 0.742 µM
same,Potency,[2],active: 0.372 µM
C=CC(=O)N1CCC(CNc2ncnc(N)c2-c2ccc(Oc3ccccc3)cc2)CC1,Potency,[1],active: 16.6 µM
same,Potency,[4],"inconclusive [inhibitor, single point]"
same,Potency,[2],"inconclusive [inhibitor, partial curve, poor fit]"
NC(=O)c1ncn([C@@H]2O[C@H](CO)[C@@H](O)[C@H]2O)c1N,Potency,[3],inactive
CN(C)CCOc1cc(-c2cn[nH]c2)ccc1NC(=O)C1COc2ccccc2O1 (configuration not stated),Potency,[1],"inconclusive [inhibitor, full curve]"
same,Potency,[2],"inconclusive [inhibitor, partial curve]"
O=C(O)c1cc(=O)[nH]c(=O)[nH]1,Potency,[3],inactive
NC(N)=NC(N)=NCCc1ccccc1,Potency,[3],"inconclusive [inhibitor, full curve, poor fit]"
Cc1cnc(NC(=O)C2=C(O)c3ccccc3S(=O)(=O)N2C)s1,Potency,[3],inactive
CN1CCN(c2ccc(C(=O)Nc3n[nH]c4ccc(Cc5cc(F)cc(F)c5)cc34)c(NC3CCOCC3)c2)CC1,Potency,[3],active: 0.468 µM
CCCCCN(C)CCC(O)(P(=O)(O)O)P(=O)(O)O,"viability, % of control",[3],inactive: 131% [at 5.12 µM]
CCC(=O)O[C@]1(C(=O)CCl)[C@@H](C)C[C@H]2[C@@H]3CCC4=CC(=O)C=C[C@]4(C)[C@@]3(F)[C@@H](O)C[C@@]21C,Potency,[1],"inconclusive [inhibitor, partial curve, poor fit]"
same,Potency,[4],"inconclusive [inhibitor, full curve, poor fit]"
same,Potency,[2],"inconclusive [inhibitor, full curve, poor fit]"
CCOC(=O)c1ncn2c1CN(C)C(=O)c1cc(F)ccc1-2,Potency,[1],inactive
same,Potency,[2],inactive
Cc1sc2c(c1C)C(c1ccc(Cl)cc1)=N[C@@H](CC(=O)Nc1ccc(OCCOCCOCCOCCNc3cccc4c3C(=O)N(C3CCC(=O)NC3=O)C4=O)cc1)c1nnc(C)n1-2 (some centres not stated),Potency,[3],active: 0.0417 µM
CCC[C@H](N[C@@H](C)C(=O)N1[C@@H]2CCCC[C@H]2C[C@H]1C(=O)O)C(=O)OCC,Potency,[3],inactive
CCn1cc(C(=O)O)c(=O)c2cc(F)c(N3CCNCC3)cc21,Potency,[3],inactive
O=S(=O)(c1cccc2cnccc12)N1CCCNCC1,Potency,[1],"inconclusive [inhibitor, partial curve, poor fit]"
same,Potency,[4],inactive
same,Potency,[2],inactive
CN1CCN(C(=O)[C@H]2[C@@H](C(=O)O)[C@H]3CC[C@@H]2O3)CC1,"viability, % of control",[3],inactive: 111% [at 8.46 µM]
same,Potency,[5],"inconclusive [inhibitor, single point]"
same,viability (% of control),[4],inactive: 93.9% [at 8.46 µM]
Cc1noc(-c2ccc(CSCCC(=O)O)cc2)c1NC(=O)OC(C)c1ccccc1Cl (configuration not stated),Potency,[3],inactive
same,Potency,[5],inactive
same,Potency,[4],inactive
Cn1cc(-c2ccc3nnc(Sc4ccc5ncccc5c4)n3n2)cn1,Potency,[3],"inconclusive [inhibitor, partial curve]"
same,Potency,[5],"inconclusive [inhibitor, partial curve, poor fit]"
same,Potency,[4],inactive
C=C[C@H]1CN2CCC1C[C@@H]2C(O)c1ccnc2ccc(OC)cc12 (some centres not stated),Potency,[3],active: 18.6 µM
same,Potency,[5],inactive
same,Potency,[6],inactive
same,Potency,[2],inactive
CCCCNc1ncc(-c2ccc(CN3CCOCC3)cn2)c(NC2CCC(O)CC2)n1 (configuration not stated),Potency,[3],active: 0.144 µM
same,Potency,[5],"inconclusive [inhibitor, full curve]"
same,Potency,[6],active: 8.11 µM
same,Potency,[4],"inconclusive [inhibitor, full curve]"
same,Potency,[2],"inconclusive [inhibitor, full curve]"
Cc1c(NC(=O)c2ccc(C(C)(C)C)cc2)cccc1-c1cn(C)c(=O)c(Nc2ccc(C(=O)N3CCOCC3)cc2)n1,Potency,[3],"inconclusive [inhibitor, partial curve, poor fit]"
same,Potency,[5],"inconclusive [inhibitor, single point]"
same,Potency,[4],"inconclusive [inhibitor, single point]"
C[C@@H]1C[C@H]2[C@@H]3CCC4=CC(=O)C=C[C@]4(C)[C@@]3(F)[C@@H](O)C[C@]2(C)[C@@]1(O)C(=O)CO,Potency,[3],inactive
same,Potency,[5],"inconclusive [inhibitor, full curve, poor fit]"
same,Potency,[4],"inconclusive [inhibitor, full curve, poor fit]"
same,Potency,[2],"inconclusive [inhibitor, full curve]"
CC(=O)[C@]1(N)Cc2c(O)c3c(c(O)c2[C@@H](O[C@H]2C[C@H](O)[C@H](O)CO2)C1)C(=O)c1ccccc1C3=O,Potency,[3],"inconclusive [inhibitor, full curve]"
same,Potency,[5],"inconclusive [inhibitor, full curve]"
same,Potency,[6],"inconclusive [inhibitor, full curve]"
same,Potency,[4],"inconclusive [inhibitor, full curve]"
same,Potency,[2],"inconclusive [inhibitor, partial curve]"
CCCN(CCC)C(=O)C(CCC(=O)O)NC(=O)c1ccccc1 (configuration not stated),Potency,[3],inactive
same,Potency,[5],inactive
same,Potency,[4],inactive
same,Potency,[2],inactive
CC1(C)SCCN(S(=O)(=O)c2ccc(OCC#CCO)cc2)[C@H]1C(=O)NO,Potency,[3],"inconclusive [inhibitor, partial curve, poor fit]"
same,Potency,[5],"inconclusive [inhibitor, partial curve]"
same,Potency,[6],"inconclusive [inhibitor, single point]"
same,Potency,[2],"inconclusive [inhibitor, partial curve, poor fit]"

# Reference: PubChem BioAssay (NCATS)
